# Reference: PubChem BioAssay AID1466 (National Center for Advancing Translational Sciences (NCATS), 2008)
# Hit rate of the full screen: of about 200,000 compounds, about 10 (0.005%) were called active. Inconclusive results, whose numbers are uncertain, are shown with a selection of clear calls. Calls come from the whole dose curve; as a rule, active = well fitted inhibition curve with a large enough effect; inconclusive = small, poorly fitted or top-dose-only effect, or effect the other way, or another doubt; inactive = no such curve, though single readings can be large or run the other way. No potency is given beside an inconclusive call; the fits are too rough.
# Biological target: Lysosomal alpha-glucosidase (Homo sapiens) (UniProt P10253)
# Test: qHTS Assay for Inhibitors of Human alpha-Glucosidase as a Potential Chaperone Treatment of Pompe Disease;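 for activity change, negative = inhibition: plate controls were uninhibited enzyme wells for no effect and no-enzyme background for full effect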
# Settings: purified human GAA, 4-MU-alpha-glucoside fluorescence; activity change, negative = inhibition: at 76.9 µM (top of the series) unless noted
# Method in brief: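 Enzyme (4 nM final) mixed with compound (up to 77 uM), then 4-MU-alpha-D-pyranoside (400 uM final) added; 20 min at room temperature, pH 5.0. Reaction stopped at pH 10, fluorescence read, AC50 derived by Hill fit.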
# Potency is the fitted concentration of half-maximal effect; tags give direction and shape of the fitted curve.
Compound,Potency,"activity change, negative = inhibition"
O=C(c1ccc(N2C(=O)C3CCCCC3C2=O)cc1)N1CCCCC1 (stereo not drawn),"inconclusive [inhibitor, single point]",
Cc1ccsc1/C=N/Nc1ncc(Cl)cc1Cl,"inconclusive [inhibitor, single point]",
CCOc1ccc2c(c1)n([O-])c1c([n+]2=O)CCCC1,,inactive: 4.87%
O=C(NC1CCCCCC1)C1CCN(S(=O)(=O)N2CCC3(CC2)OCCO3)CC1,"inconclusive [inhibitor, single point]",
O=c1c2ccccc2c(C=NCCc2ccccc2)c(O)n1Cc1ccccc1,"inconclusive [inhibitor, partial curve]",
CSc1nc(-c2ccc(Cl)cc2Cl)[nH]c(=O)c1C#N,"inconclusive [inhibitor, single point]",
COc1cc(C2=Nc3c(c(C)nn3-c3ccccc3)P(=O)(N3CCOCC3)O2)cc(OC)c1OC (stereo not drawn),,inconclusive: -17.5% [inhibitor]
CC1(C)CC(CCC(=O)Nc2ccccc2Cl)C(=O)O1 (stereo not drawn),"inconclusive [activator, full curve, poor fit]",
CCn1c(C)cc(/C=C2/NC(=O)N(Cc3ccccc3F)C2=O)c1C,,inactive: -3.49%
COc1ccc(C(=O)NC2(C(F)(F)F)NC(=O)N(CCCc3ccccc3)C2=O)c(OC)c1OC (stereo not drawn),"inconclusive [inhibitor, single point]",
CC(=O)c1ccc(NC(=O)C2Cc3ccccc3CN2C(=O)c2ccccc2)cc1 (stereo not drawn),,inactive: 3.25%
CCOc1ccc2nc(N/C(N)=N/S(C)(=O)=O)nc(C)c2c1,"inconclusive [activator, partial curve]",
O=[N+]([O-])c1cccc(-c2ccc(/C=N/Nc3nc(N4CCCCC4)nc(N4CCCCC4)n3)o2)c1,,inconclusive: -18.3% [inhibitor]
O=C(CCNC(=O)Cn1ccc2ccccc2c1=O)NCCCN1CCOCC1,"inconclusive [inhibitor, full curve, poor fit]",
Cn1c(CSc2ncccn2)nnc1SCC(=O)N1CCCC1,,inconclusive: 12.7% [activator]
CC(C)(C)NC(=O)CN(C(=O)Cn1nnc(-c2ccc(Cl)cc2)n1)C1CCN(Cc2ccccc2)CC1,,inconclusive: -15.2% [inhibitor]
CC(C)N(Cc1ccccc1)C(=O)COC(=O)c1cnccn1,,inactive: 2.14%
NC(=O)c1cnn2c1NC(c1ccc(F)cc1)CC2C(F)(F)F (stereo not drawn),"inconclusive [inhibitor, full curve]",
CC(C)(C)Nc1nc(Oc2ccc(=O)n(-c3ccccc3)n2)nc(N2CCOCC2)n1,"inconclusive [inhibitor, single point]",
CCC1=NN(C(=O)COc2ccccc2)C(O)(c2ccncc2)C1 (stereo not drawn),,inconclusive: 15.8% [activator]
COc1ccc(C)cc1NC(=O)NCc1ccccn1,,inactive: 10.1%
COc1cc(C)c(S(=O)(=O)NCc2ccc3c(c2)OCO3)cc1C,"inconclusive [inhibitor, single point]",

Compound,Potency,"activity change, negative = inhibition"
COc1ccccc1CNC(=O)CN(Cc1ccc(Cl)cc1)S(C)(=O)=O,"inconclusive [inhibitor, single point]",
Cc1c(CCC(=O)O)c(=O)oc2cc(O)ccc12,"inconclusive [activator, partial curve]",
Nc1nc(Nc2ccc(Cl)cc2)n[nH]1,"inconclusive [inhibitor, single point]",
O=C(c1ccc2nc3ccccc3c(=O)n2c1)N1CCN(Cc2ccc3c(c2)OCO3)CC1,"inconclusive [activator, partial curve]",
COc1cc(OC)cc(C(=O)N[C@H](C(=O)OCc2cc(=O)oc3cc(C)ccc23)C(C)C)c1,"inconclusive [inhibitor, partial curve]",
COc1ccc2cc(C#N)c(NC(C)C)nc2c1,"inconclusive [activator, single point]",
O=C(N/C(=C/c1ccc(Br)cc1)C(=O)N1CCCC1=O)c1ccco1,,inconclusive: 13.1% [activator]
C=CCN(CC=C)CCCOc1ccc(C)cc1OC,,inconclusive: 17.8% [activator]
O=C(CN1CCCCC1)Nc1nnc(-c2ccc([N+](=O)[O-])cc2)s1,,inconclusive: -20.5% [inhibitor]
NC(=O)CSC1=Nc2ccccc2C2=NC(c3ccccc3)C(=O)N12 (stereo not drawn),"inconclusive [activator, partial curve]",
CC(=O)c1c(-c2ccccc2)c2ccccc2[nH]c1=O,,inactive: 13.2%
COC(=O)c1ccccc1NC(=O)N1CCN(c2ccc(OC)cc2)CC1,,inconclusive: 16.4% [activator]
CN1C(=O)CC(N2CCN(C(=O)CN3CCCC3)CC2)C1=O (stereo not drawn),"inconclusive [inhibitor, partial curve]",
COc1ccc(NC(=O)CN2CCC(NC(=O)C3CCCCC3)CC2)c([N+](=O)[O-])c1,,inconclusive: 16.2% [activator]
C=CCn1c(SCc2c(F)c(F)c(F)c(F)c2F)nc(O)cc1=O,,inconclusive: -15.7% [inhibitor]
Cc1ccc(O)c(-c2cc(C(F)(F)C(F)F)nc(-c3ccccc3)n2)c1,,inconclusive: 18.5% [activator]
COc1cc(-c2nc(-c3cccc(C(F)(F)F)c3)no2)cc(OC)c1OC,"inconclusive [inhibitor, single point]",
Cc1cc(/C=N/n2cnnc2)c(C)n1-c1ccc(Cl)cc1Cl,"inconclusive [inhibitor, single point]",
COc1ccc(NC(=O)N2CCCC(c3nc(-c4ccc(C(C)C)cc4)no3)C2)cc1 (stereo not drawn),"inconclusive [inhibitor, partial curve]",
CCOc1ccc(/C=C/C2=NNC(=O)CC2)cc1,"inconclusive [inhibitor, single point]",
O=C(Nc1ccc(F)cc1)N1CCN(C/C=C/c2ccccc2)CC1,"inconclusive [inhibitor, single point]",
